Hit rate of the full screen: of about 44,000 compounds, about 340 (0.77%) were called active. Not shown: some 5% with an inconclusive outcome. Calls come from the whole dose curve; as a rule, active = well fitted inhibition curve with a large enough effect; inconclusive = small, poorly fitted or top-dose-only effect; inactive = flat fitted curve, though single readings scatter. Some of the results follow.
test: Acumen qHTS Assay for Inhibitors of the mTORC1 Signaling Pathway in MEF (Tsc2-/-, p53-/-) Cells: Sytravon; conditions: phospho-rpS6 immunofluorescence/PI, 24 h; series mostly up to 38.3 µM; activity change, negative = inhibition: at the top concentration;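 note: plate controls were DMSO for no effect and rapamycin for full effect; nearly all actives have a fitted effect of over 50% in size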
Procedure, shortened: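 Plate MEFs (Tsc2-/-, p53-/-, empty vector) in DMEM/10% FBS; after 24 h add compound, incubate 24 h at 37 degree Celsius; fix in PFA/TX-100, block, stain phospho-rpS6 and 10 uM PI; scan at 488 nm; report % positive cells.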

Activity change, negative = inhibition, inactive:
Cc1ccn2c(Nc3ccc(C(C)C)cc3)c(-c3ccsc3)nc2c1 -7.57%, CC(=O)c1ccc(NC(=O)CSc2nnc(NC(=O)NC3CCCCC3)s2)cc1 -1.7%, CCOC(=O)c1cc(-c2ccccc2)n(CC(=O)Nc2cc(Cl)c(OC)cc2OC)c1C -7.67%, Cc1cc(C)c(NC(=O)Nc2sc3nc4n(c(=O)c3c2C)CCC(C)CC4)c(C)c1 (stereo not drawn) -0.124%, CCCCCOc1ccccc1Cn1c(=O)oc2ccc(C)cc21 2.59%, Cc1ccc(Nc2c(-c3ccc(N4CCOCC4)cc3)nc3ncccn23)c(C)c1 -5%, COCCNC(=O)CCSc1nc(-c2ccc(OC)cc2)cc(C(F)(F)F)n1 -4.65%, Cc1nn(C(C)C(=O)Nc2cccc(F)c2)c(=O)c2c1sc1ccccc12 (stereo not drawn) 2.29%, CC1CCCN(Cc2c(O)ccc3c(=O)c(-c4ccccc4Cl)c(C(F)(F)F)oc23)C1 (stereo not drawn) -2.19%, Cc1cc(C)c(NS(=O)(=O)c2ccc3c(c2)NC(=O)CCS3)c(C)c1 -4.5%, O=C(COc1ccc(Cl)cc1)N(Cc1ccco1)c1ccccn1 -4.37%, COc1ccc(C2=NN(S(C)(=O)=O)C(c3cn(-c4ccccc4)nc3-c3cccs3)C2)cc1 (stereo not drawn) -1.83%, Cc1ccc(S(=O)(=O)N(CC(O)Cn2c3ccccc3c3ccccc32)c2cccc(C(=O)N(C)C)c2)cc1 (stereo not drawn) -20.7%, COc1ccc(C(=O)NCC(c2ccc3c(c2)OCO3)N2CCOCC2)cc1 (stereo not drawn) -3.02%, Cc1ccc(CN2C(=O)c3ccccc3Sc3ccc(C(=O)NCc4ccco4)cc32)cc1 11.8%, CCCn1c(=N)c(C(=O)NCc2cccnc2)cc2c(=O)n3cccc(C)c3nc21 0.457%, COc1cccc(-c2ccnc3c(-c4ccc(F)cc4)c(C)nn23)c1 -7.54%, Cc1ccc(Oc2nc3c(c(=O)n(Cc4ccccc4)c(=O)n3C)n2C)cc1C -17.3%, Cc1oc2ncnc(N3CCOCC3)c2c1C(=O)N1CCN(c2cccc(C(F)(F)F)c2)CC1 1.77%, CCN(C(=O)C1CCC(CNS(=O)(=O)c2cccc3nsnc23)CC1)c1cccc(C)c1 (stereo not drawn) -5.83%, CCN(C(=O)C1CCC(CNS(=O)(=O)c2cccc3nsnc23)CC1)c1ccccc1 (stereo not drawn) -4.96%, CC1(C)CC(=O)c2cc(C(=O)Nc3ccc(Br)cc3)c(=O)[nH]c2C1 11%, COc1ccc(NC(=O)C2=C(C)Nc3ncnn3C2c2ccc(C)o2)cc1 (stereo not drawn) -8.39%, Cc1ccc(-c2nc3ccccn3c2Nc2ccc3c(c2)OCCO3)s1 -17.9%, O=C(Cc1ccc(NC(=O)N2CCSc3ncccc32)cc1)NCc1ccccc1 -5.41%, Cc1cc(C)cc(NC(=O)Cn2c(=O)n(C(C)C)c(=O)c3oc4ccccc4c32)c1 -0.142%, COc1ccc(OCC(=O)N2CCN(C(=O)c3cc(OC)c(OC)c(OC)c3)CC2)cc1 -9.66%, COc1ccc(/C=C/C(=O)N2CCC(c3nc4ccccc4o3)CC2)cc1OC 1.09%, CCOc1ccccc1NC(=O)N(C)CCc1c(C)nn(CC)c1C 0%, CCOc1ccc(C2N3CC4(C(C)C)CN2CC(C(C)C)(C3)C4=O)cc1OC (stereo not drawn) 3.27%, Cc1ccc(NC(=O)c2ccc(=O)n(CC(=O)Nc3c(C)cc(C)cc3C)n2)cc1 2.75%, Cc1ccc(COc2ccc3oc(-c4ccccc4)c(C(=O)O)c3c2)cc1 -7.53%, COc1ccc(-n2nc(C(=O)Nc3ccc(Br)cc3C)c3c4ccccc4n(C)c3c2=O)cc1 0.777%, COc1ccc(C(=O)N2CC(=O)Nc3ccc(C)cc3C2c2ccccc2)cc1OC (stereo not drawn) -2.16%, CCOc1ccc(C2C=C(c3cccc(OC)c3)Nc3nnnn32)cc1 (stereo not drawn) -9.5%, O=C(COc1ccccc1)NCC(c1cccs1)S(=O)(=O)c1ccc(Cl)cc1 (stereo not drawn) -7.2%, CC(C)(C)c1ccc(C(=O)NNc2ncnc3c2cnn3-c2ccccc2)cc1 0.282%, CCN(C(=O)Cn1c(SCC(=O)Nc2ccc(OC)cc2)nc2ccccc21)c1cccc(C)c1 12.6%, COc1cccc(C(=O)Nc2ccc(-n3nncc3-c3ccc(Br)cc3)cc2)c1OC -1.39%, Cc1cc(C)n2c(Nc3ccccc3C)c(-c3cccs3)nc2n1 6.79%, Cc1cccc(Nc2nc(C)nc(N)c2S(=O)(=O)c2ccccc2)c1 -0.398%, Cc1c(C2=CCN(S(=O)(=O)c3ccc(Br)cc3)CC2)c2ccccc2n1CC(=O)N1CCCC1 0.537%, CCOc1ccc(NC(=O)CN(Cc2ccccc2)S(=O)(=O)c2ccc(Cl)cc2)cc1 3.52%, COc1ccc2nc3oc(C(=O)Nc4cccc(C(F)(F)F)c4)cc3cc2c1 -4.89%, Cc1cc(C)cc(NS(=O)(=O)c2ccc3c(c2)OCC(C(=O)N2CCCC2)O3)c1 (stereo not drawn) -14.5%, Cc1ccccc1CN1CCc2nc(N3CCN(c4ccccn4)CC3)ncc2C1 0%, Cc1ccc2nc(-c3ccc(C)c(NC(=O)Cc4ccccc4)c3)oc2c1 5.17%, CCCC12CN3CC(C)(CN(C1)C3c1ccccc1Cl)C2=O (stereo not drawn) -6.63%, CCc1c(C)sc2c1CCN(C(=O)Nc1ccccc1C(=O)OC)C2c1ccc(F)cc1 (stereo not drawn) 0%, CCNC(=O)c1c(NC(=O)COc2ccc(F)cc2)sc2c1CCCC2 17%, O=C(Nc1ccc(Br)cc1)N1CCC(CN2CCCC2)CC1 -0.31%, CCOc1ccc(C2C(C(=O)Nc3ccc(OC)cc3)=C(C)Nc3nc(SCc4ccc(Cl)cc4)nn32)cc1 (stereo not drawn) 8.46%, COc1ccc(N2CCN(CCCNC(=O)c3ccc4nc(CCc5ccccc5)oc4c3)CC2)cc1 -17.7%, Cc1ccccc1NC(=O)CS(=O)(=O)c1cccc2nsnc12 1.44%, Cc1c(Cl)cccc1NC(=O)c1ccc(NC(=O)N2CCSc3ncccc32)cc1 -1.72%, CCCc1ccc(OCC(=O)Nc2scc(-c3cccs3)c2C(=O)OC)cc1 -1.84%, COc1ccc2c(c1)CC(C(=O)NCCN1CCN(c3cccc(Cl)c3)CC1)CO2 (stereo not drawn) -17.4%, O=C(c1ccc2c(c1)N(Cc1ccc(F)cc1)CCS2)N1CCN(c2ccccc2)CC1 -16.3%, Cc1nc(Oc2ccccc2C)c2oc3ccccc3c2n1 -0.216%, Cc1ccc(CNC(=O)c2sc3nc4n(c(=O)c3c2C)CCCC4)cc1 9.45%, COc1cc(CNC(=O)CSCc2nc3cccnc3n2C2CCCCC2)cc(OC)c1OC -9.62%, CCOc1cc(C#N)c(NC(=O)c2cccc(S(=O)(=O)N3CCOCC3)c2)cc1OCC -6.95%, O=C(CCNS(=O)(=O)c1ccc2c(c1)CCCC(=O)N2)NCc1ccccc1Cl 4.94%, CCC(=O)N1CCc2cc(CNC(=O)Nc3ccccc3Cl)ccc21 -1.13%, COc1cccc(NC(=O)CN(C)S(=O)(=O)c2cccs2)c1 2.66%, CC(C(=O)NCc1ccccc1)N1Cc2ccccc2C1=O (stereo not drawn) -3.47%, CC1CCN(C(=O)CSc2nc(-c3ccc(C(C)C)cc3)no2)CC1 -10.9%, CCc1ccc(NC(=O)c2cc(S(=O)(=O)N3CCCC3)ccc2F)cc1 5.95%, COc1ccc(CCNC(=O)c2cc(C)nc3c2c(C)nn3-c2ccccc2)cc1OC -1.87%, Cn1c(CNC(=O)CSc2n[nH]c(-c3ccccc3)n2)nc2ccccc21 0.601%, CC(C)(C)C1CCc2c(sc(NC(=O)Cn3nnc(-c4cccc(C(F)(F)F)c4)n3)c2C#N)C1 (stereo not drawn) 4.09%, CCCCCOC(=O)CSc1nc2sc3c(c2c(=O)n1Cc1ccccc1)CC(C)(C)OC3 8.61%, CCN1CCSc2ccc(C(=O)NCc3cccc(F)c3)cc21 -3.84%, O=C(Cn1c(=O)n(-c2ccc(Cl)cc2)c(=O)c2c3c(sc21)CCC3)c1ccc(F)cc1 -7.87%, CCCCc1nn2c(=O)cc(COC(=O)c3ccc(NC(=O)c4cccs4)cc3)nc2s1 0%, COc1ccccc1N1CCN(C(=O)CSc2nc3ccccc3nc2Cc2ccc(F)cc2)CC1 9.1%, COc1ccccc1Cn1c(CNS(=O)(=O)c2ccc3c(c2)CCCC3)nc2cccnc21 1.49%, Cc1csc2nc(COc3ccc(NC(=O)COc4ccccc4F)cc3)cc(=O)n12 -7.82%, Cc1nc2sccn2c(=O)c1S(=O)(=O)Nc1ccc(N2CCN(S(C)(=O)=O)CC2)cc1 -3.26%, CCC(=O)N1c2ccccc2CC1C(=O)NCCN1CCN(c2cccc(C)c2C)CC1 (stereo not drawn) 0%, Cc1ccc(-c2nc3ccccc3o2)cc1NC(=O)c1cccc2c(Cl)cccc12 -0.443%, Cc1cccc(Nc2nc(-c3ccccc3)c3cc(C)ccc3n2)c1 -3.53%, O=[N+]([O-])c1cc(-c2nc(-c3ccccc3)no2)ccc1N1CCCC1 3.21%, Cc1ccccc1NCc1cccn1-c1nnc(N2CCOCC2)s1 -5.37%, CC(C)OCCCn1c(SCC(=O)Nc2ccc(F)cc2)nc2c(sc3ccccc32)c1=O -1.33%, Cc1ccc(NC(=O)CSc2nnc3[nH]c(=O)cc(C)n23)cc1Cl 3.21%, COc1cccc(CNC(=O)CCc2nnc3n(CC(C)C)c(=O)c4ccccc4n23)c1 -0.965%, Cc1sc2c(c1C)c(=O)n(-c1ccccc1)c(=O)n2CC(=O)c1ccc(Cl)cc1 -5.09%, CCC(Sc1nc2c(sc3ccccc32)c(=O)n1CCCC(=O)NC1CCCC1)C(=O)Nc1cccc(OC)c1 (stereo not drawn) 1.18%, CC(C)CC(=O)N1CC(=O)Nc2ccc(F)cc2C1c1ccccc1 (stereo not drawn) 0.668%, Cc1ccc(OCCSc2nc3ccc(NC(=O)c4ccc5c(c4)OCO5)cc3s2)cc1 -3.65%, COc1ccc(NC(=O)c2cc3c(=O)n(C)c4ccccc4c3s2)cc1Cl -0.828%, CCOC(=O)C1CCCN(C(=O)c2c(C)nn(-c3ccc(F)cc3)c2-n2cccc2)C1 (stereo not drawn) -0.626%, O=C(Nc1ccc(F)cc1)C1CCN(c2nc3ccccc3n3cccc23)CC1 4.05%, CCCc1ccc(OC(=O)CSc2nnc(-c3cccs3)o2)cc1 1.56%, CCS(=O)(=O)N1CCc2cc(C(=O)Nc3cccc(C)c3C)ccc21 -6.01%, CSc1ccc(CCNC(=O)CCn2c(=O)c3cccn3c3cccnc32)cc1 4.99%, O=C(NC1(C(F)(F)F)NC(=O)N(CCc2ccccc2)C1=O)c1ccccc1Cl (stereo not drawn) -0.291%

— PubChem BioAssay AID493208 (National Center for Advancing Translational Sciences (NCATS), 2011)
